# Publication PMC4336329 (PLoS ONE, 2015)
# Screen size: about 310,000 compounds; about 14,000 (4.5%) showed an effect of 50% or more. Effects have a minus sign here. The list shows a part of the results.
# Target: human ether-à-go-go-related gene (hERG) potassium channel (human, UniProt Q12809)
# Test: primary screen, population patch clamp on CHO cells stably expressing hERG
# 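Further: peak tail current of the secondary pulse compared with the same well before compound.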
# Chain of human ether-à-go-go-related gene (hERG) potassium channel (Q12809 whole entry, looked up): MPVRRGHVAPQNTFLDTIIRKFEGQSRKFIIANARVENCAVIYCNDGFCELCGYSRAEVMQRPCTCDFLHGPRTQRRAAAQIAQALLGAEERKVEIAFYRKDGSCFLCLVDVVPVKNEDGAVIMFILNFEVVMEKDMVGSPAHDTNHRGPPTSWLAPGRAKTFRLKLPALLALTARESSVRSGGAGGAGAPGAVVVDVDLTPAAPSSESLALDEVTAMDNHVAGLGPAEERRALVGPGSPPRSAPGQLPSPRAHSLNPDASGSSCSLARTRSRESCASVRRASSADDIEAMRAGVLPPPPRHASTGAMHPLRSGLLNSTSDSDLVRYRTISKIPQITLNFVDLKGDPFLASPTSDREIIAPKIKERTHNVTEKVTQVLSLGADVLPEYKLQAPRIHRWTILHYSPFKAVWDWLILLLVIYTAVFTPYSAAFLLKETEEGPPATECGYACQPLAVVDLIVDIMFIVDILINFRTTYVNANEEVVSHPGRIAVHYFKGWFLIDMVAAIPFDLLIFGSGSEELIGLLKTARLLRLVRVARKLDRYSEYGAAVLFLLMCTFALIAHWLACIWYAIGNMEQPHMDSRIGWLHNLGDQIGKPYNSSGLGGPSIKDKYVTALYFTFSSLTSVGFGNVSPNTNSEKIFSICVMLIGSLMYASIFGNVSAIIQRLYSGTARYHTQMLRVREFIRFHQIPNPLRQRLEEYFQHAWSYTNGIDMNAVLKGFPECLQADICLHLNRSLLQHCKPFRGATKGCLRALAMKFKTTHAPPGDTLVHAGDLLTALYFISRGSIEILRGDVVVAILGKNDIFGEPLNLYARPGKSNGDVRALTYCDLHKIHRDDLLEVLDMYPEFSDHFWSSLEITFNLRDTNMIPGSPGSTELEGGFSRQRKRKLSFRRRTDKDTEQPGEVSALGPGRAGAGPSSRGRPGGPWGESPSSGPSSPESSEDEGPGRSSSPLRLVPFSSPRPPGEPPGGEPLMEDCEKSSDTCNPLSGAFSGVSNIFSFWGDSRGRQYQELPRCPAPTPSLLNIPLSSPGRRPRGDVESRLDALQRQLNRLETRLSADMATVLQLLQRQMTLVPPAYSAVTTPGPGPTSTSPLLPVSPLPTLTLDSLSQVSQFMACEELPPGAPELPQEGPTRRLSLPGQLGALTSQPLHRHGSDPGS
row,SMILES,"hERG current change (%, negative = inhibition) at 10uM [%]"
1,O=C(OCN1C(=O)c2ccccc2C1=O)c1cccc(OC(F)F)c1,11.9
2,CCOc1ccccc1CN1CCN(CCCc2ccccc2)CC1CCO (stereo not shown),-64.9
3,N#CC1=C2SCN(c3ccccc3)CN2C(=O)CC1c1c(Cl)cccc1Cl (stereo not shown),3.11
4,CCC1(c2ccc(F)cc2)NC(=O)N(CC(=O)N(CCC#N)c2ccccc2)C1=O (stereo not shown),-3.58
5,Cc1c(Cl)cccc1NCC(=O)NN=C1CCCC1,25.2
6,CCN(Cc1ccncc1)C(=S)Nc1ccccc1,-3.22
7,COc1ccc(C)cc1S(=O)(=O)N(CC(=O)Nc1cccc([N+](=O)[O-])c1)c1ccc(C)c(C)c1,-0.952
8,Cc1noc(C)c1C(=O)N1CCc2ccccc21,-0.274
9,O=C(NCc1ccncc1)C1CCN(S(=O)(=O)c2cc(Cl)ccc2Cl)CC1,-18.9
10,O=C(Nc1nc(-c2nc3ccccc3s2)cs1)C1CC1,1.21
11,CCOc1ccc2nc(NC(=O)CC3Oc4ccccc4NC3=O)sc2c1 (stereo not shown),8.37
12,COc1ccccc1OCC(=O)Nc1ccc(N2CCOCC2)cc1N1CCOCC1,-23.9
13,C=CCNC(=O)C1CCN(c2nc(C)cc(-c3ccccc3)n2)CC1,-51.3
14,O=S(=O)(NC12CC3CC(CC(C3)C1)C2)c1ccc(F)cc1,-6.37
15,CNC(=O)/C(=C\C=C\c1ccccc1)NC(=O)c1ccc([N+](=O)[O-])cc1,-77.6
16,COCCNC(=S)N1CCN(c2nc(-c3ccc(F)cc3)cs2)CC1,11.6
17,O=C(O)c1cccc(N2C(=S)N=C(Nc3ccccc3)C23CCCCC3)c1,1.22
18,CNc1nc(NCCOC23CC4CC(CC(C4)C2)C3)nc(OCC(F)(F)F)n1,8.55
19,COc1cccc(CC2(CO)CCCN(Cc3ccc(OC(F)F)cc3)C2)c1 (stereo not shown),-68.6
20,Cc1cccc(N2CCN(C(=O)NC(C)c3ccc(F)c(F)c3)CC2)c1C (stereo not shown),-13
21,COc1ccc(C2/C=C\CN(C(=O)C3CCCC3)[C@H](Cc3ccccc3)C(=O)N2Cc2ccc(F)cc2)cc1 (stereo partly shown),12.8
22,CCCC(O)(c1ccc(OC)cc1)C(CN1CCOCC1)c1ccc(Cl)cc1.Cl (stereo not shown),-20.5
23,CCOC(=O)N1CCN(S(=O)(=O)c2ccc(C(=O)N(CCCN(C)C)c3nc4ccc(Cl)cc4s3)cc2)CC1.Cl,-58.4
24,COc1ccccc1Cn1c(=S)[nH]c2ccccc2c1=O,32.7
25,O=C(Nc1ccc(O)cc1)c1ccc(NC(=O)c2cccs2)cc1,24.2
26,CC(=O)Nc1ccc(S(=O)(=O)NCc2ccc3c(c2)cc(C)n3C)cc1,-18.3
27,COc1cccc(NC(=O)N2C3CCCC2CC(NC(=O)C(C)(C)C)C3)c1 (stereo not shown),2.46
28,CN(CCC(=O)Nc1ccc(Cl)cc1)Cc1ccccc1.Cl,-39.9

row,SMILES,"hERG current change (%, negative = inhibition) at 10uM [%]"
1,CC1CCC(NC(=O)c2cc(S(=O)(=O)N(C)C)ccc2N2CCCC2)CC1 (stereo not shown),4.47
2,CC(OC(=O)CN1C(=O)c2ccccc2C1=O)C(=O)NC1CCCC1 (stereo not shown),-11.3
3,CCOC(=O)N(NC(=O)C(O)(C(C)C)C(C)C)c1ccccc1,13.5
4,O=c1c2c3c(sc2nc2n1CCCCC2)CCC3,-0.34
5,CC(C)CCC(C(=O)NC(C)c1ccccc1)C(=O)NC(C)c1ccccc1 (stereo not shown),15.1
6,Cc1ccc(S(=O)(=O)/N=C2\CN(C)C(=O)N2C)cc1,2.81
7,O=S(=O)(Cc1ccccc1Cl)N1CCCC1,-2.74
8,CCOc1ccccc1C(=O)Nc1cc2c(cc1N1CCCC1)n(CC)c(=O)n2CC,-42
9,COc1ccc(C)cc1NC(=O)N1CCCc2ccccc21,-12.7
10,Cc1ccc(S(=O)(=O)N2CCN(C(=O)CCn3nc(C)c(C)c3C)CC2)cc1C,-4.21
11,Cc1cc2nnc(SC3CCCCN(C(=O)c4ccc(F)cc4)C3=O)n2c2ccccc12 (stereo not shown),-13.2
12,C=CCn1c(SCC(=O)c2ccc(CNC(C)=O)o2)nc2scc(C3CC3)c2c1=O,-11.1
13,N#Cc1nc(Nc2cccc(Cl)c2)c2ncn(C3CCCC3)c2n1,8.12
14,CC(C)(C)C(=O)Nc1ccccc1N1CCN(c2ccc(F)cc2)CC1,16.9
15,CC1CN(S(=O)(=O)c2cccc(C(=O)Nc3ccc4c(c3)CCC4)c2)CC(C)O1 (stereo not shown),-13.4
16,CC(=O)CC1(C)OC(N)=C(C#N)C1(C#N)C#N (stereo not shown),4.97
17,Cc1cccc(N(CC(=O)NC2CC3CCC2C3)S(=O)(=O)c2ccccc2)c1 (stereo not shown),-21.1
18,COc1ccc2c(c1)c(C(=O)C(C)N1CCCCC1)c(C)n2C (stereo not shown),17.2
19,COc1cc(NCCC(=O)c2cccs2)c(OC)cc1Cl,-12.4
20,O=S(=O)(/C=C/c1ccccc1)N1CCN(c2ccc(F)cc2)CC1,-1.92
21,O=C(Cc1ccc(-n2c(=O)c3sccc3n(CC(=O)Nc3ccccc3F)c2=O)cc1)NCc1ccco1,1.05
22,C/C(=N\NC(N)=O)C1CC(CC(C)C)C(=O)O1 (stereo not shown),24.8
23,Cn1c2ccccc2c2cnn(CC(=O)N3CCCCC3)c(=O)c21,-10.4
24,N#CCCn1cc(C(=O)CN2C(=O)NC3(CCCCCC3)C2=O)c2ccccc21,-6.16
25,CCOC(CCNC(=O)CCC(=O)Nc1ccc2nc(N3CCN(C)CC3)cc(C)c2c1)OCC,14
26,COc1ccc(CNC(=O)Cn2nnc3ccccc3c2=O)cc1,10.8
27,CC(=O)Nc1ccc(S(=O)(=O)Nc2cc(-c3ccccc3)nn2C)cc1,18.5
